# Reference: publication PMC4336329 (PLoS ONE, 2015)
# Among all 310,000 compounds or so, about 14,000 (4.5%) showed an effect of 50% or more. The effect is printed as a negative number. Some of the results follow.
# Biological target: human ether-à-go-go-related gene (hERG) potassium channel (human, UniProt Q12809)
# Experiment: primary screen, population patch clamp on CHO cells stably expressing hERG
# 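Note: peak tail current of the secondary pulse compared with the same well before compound.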
# Chain of human ether-à-go-go-related gene (hERG) potassium channel (Q12809 whole entry, looked up): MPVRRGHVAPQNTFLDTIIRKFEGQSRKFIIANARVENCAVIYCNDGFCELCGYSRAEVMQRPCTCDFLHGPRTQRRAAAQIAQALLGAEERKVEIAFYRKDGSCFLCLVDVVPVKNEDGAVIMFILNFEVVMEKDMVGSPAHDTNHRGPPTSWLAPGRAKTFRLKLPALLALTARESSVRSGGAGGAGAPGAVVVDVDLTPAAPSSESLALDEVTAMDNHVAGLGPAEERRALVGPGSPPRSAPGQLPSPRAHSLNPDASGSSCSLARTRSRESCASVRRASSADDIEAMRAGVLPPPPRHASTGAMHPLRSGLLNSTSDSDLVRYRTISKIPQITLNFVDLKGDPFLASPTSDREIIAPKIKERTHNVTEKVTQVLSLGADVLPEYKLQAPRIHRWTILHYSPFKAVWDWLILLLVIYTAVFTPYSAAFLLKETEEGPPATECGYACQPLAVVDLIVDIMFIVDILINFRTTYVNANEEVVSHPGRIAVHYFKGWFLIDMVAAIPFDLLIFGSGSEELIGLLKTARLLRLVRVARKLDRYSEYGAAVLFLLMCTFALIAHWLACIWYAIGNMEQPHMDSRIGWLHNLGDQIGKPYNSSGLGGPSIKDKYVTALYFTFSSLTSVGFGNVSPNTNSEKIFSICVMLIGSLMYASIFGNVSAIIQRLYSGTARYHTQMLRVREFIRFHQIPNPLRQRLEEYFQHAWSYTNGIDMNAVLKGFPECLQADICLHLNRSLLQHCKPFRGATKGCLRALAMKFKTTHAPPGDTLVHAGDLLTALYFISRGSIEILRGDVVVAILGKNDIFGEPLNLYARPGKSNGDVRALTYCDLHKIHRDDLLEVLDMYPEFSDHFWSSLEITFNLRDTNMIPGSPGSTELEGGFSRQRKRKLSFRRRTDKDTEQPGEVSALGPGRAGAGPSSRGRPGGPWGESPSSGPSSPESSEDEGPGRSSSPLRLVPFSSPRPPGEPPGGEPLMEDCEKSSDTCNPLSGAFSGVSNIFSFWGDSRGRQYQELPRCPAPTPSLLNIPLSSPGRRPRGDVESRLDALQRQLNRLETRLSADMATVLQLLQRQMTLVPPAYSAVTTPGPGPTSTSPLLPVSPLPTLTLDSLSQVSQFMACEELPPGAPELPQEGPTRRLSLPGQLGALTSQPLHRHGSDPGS
row,Compound,"hERG current change (%, negative = inhibition) at 10uM"
1,Cc1cc(C)cc(OCc2ccc(C(=O)NN)o2)c1,14.2%
2,O=C(Cn1nc(C(=O)O)c2ccccc2c1=O)Nc1cc(Cl)ccc1-n1cncn1,1.81%
3,Cc1c(/C=N/O)sc2ccccc12,-4.51%
4,COc1ccc(NC(=S)N2N=CCC2c2ccccc2)cc1 (stereo not drawn),-16.8%
5,O=C(COC(=O)/C=C/C(=O)N1CCN(c2ccccc2)CC1)NC(c1ccccc1)c1ccccc1,-47.8%
6,FC(F)(F)c1ccncc1-c1nnc(C2CCCCC2)o1,3.42%
7,CCCN1CCN(CC(=O)Nc2nnc(CC)s2)CC1,17.4%
8,COC(=O)C1=C(C(=O)OC)[C@@H]2N(C)c3ccc(OC)cc3[C@@]23C[C@@H](C(=O)OC)N(C(=O)c2ccc(Br)cc2)C3=N1,-17.7%
9,CC(C)(C)c1cc(C(=O)NNC(=O)Nc2cccc(Cl)c2)n(Cc2ccccc2)n1,24.5%
10,CCCCCCOc1ccc(CN2CCN(C)CC2)cc1,-28.4%
11,S=C1NCCN1,31.4%
12,COc1ccc(-c2nnc(SCC(=O)N3CCCC(C)C3)o2)c(OC)c1 (stereo not drawn),1.63%
13,CC(C)CN(C(=O)CSc1ccc2c(c1)OCCO2)c1c(N)n(CC(C)C)c(=O)[nH]c1=O,-7.81%
14,CCC(CC)c1nnc(NC(=O)C2=COCCO2)s1,2.04%
15,Cc1occc1C(=O)N/N=C/C=C/c1ccccc1,-49.6%
16,Cn1cnc(S(=O)(=O)NCc2cccs2)c1,18.4%
17,C/C(=N\Nc1nc(C)cc(=O)[nH]1)C1CC1,10.1%
18,COc1cc(OC)c(OC)cc1/C=C(\C#N)C(=O)NCc1cccs1,20.6%
19,COc1ccc(-c2nn(-c3ccccc3)cc2/C=N/Nc2ccc(S(N)(=O)=O)cc2[N+](=O)[O-])cc1OC,19.6%

row,Compound,"hERG current change (%, negative = inhibition) at 10uM"
1,CCCOc1ccc(CNCCCOCC)cc1OC.O=C(O)C(=O)O,-32%
2,COc1ccc(CN(C)C(=O)c2ccc(NC(=O)CC3SC(N4CCCC4)=NC3=O)cc2)c(OC)c1 (stereo not drawn),1.72%
3,O=C(Nc1ccc(OC(=O)N2CCCC2)cc1)N1CCOCC1,7.01%
4,CCc1cccc(CC)c1NC(=S)NC(C)c1ccccc1 (stereo not drawn),-10.6%
5,CCSc1nc2c(sc3ccccc32)c(=O)n1C(C)C,8.57%
6,O=C(Nc1nccs1)C1CCN(S(=O)(=O)c2ccccc2)CC1,-14.1%
7,O=C(NCc1ccc2c(c1)OCO2)C1CC(=O)N(CCc2ccc(Cl)cc2)C1 (stereo not drawn),-54.1%
8,Cc1ccc(OCC(=O)Nc2ccc(C)c(S(=O)(=O)N3CCCCC3)c2)c([N+](=O)[O-])n1,-45.4%
9,N#Cc1cnn(-c2ccccc2)c1NC(=O)CN1CCOCC1,4.91%
10,O=S1(=O)N=C(Nc2ccc(N3CCOCC3)c(Cl)c2)c2ccccc21,17.4%
11,Nc1nc2c(ncn2COC(CO)CO)c(=O)[nH]1,17.6%
12,CC(C)C(=O)NC(=S)Nc1ccc(CN2CCOCC2)cc1,7.74%
13,COc1ccc(CNC(=O)C2CCCN(c3nn4c(=O)cc(C)nc4s3)C2)cc1 (stereo not drawn),-40.1%
14,O=c1c2ccccc2nnn1Cc1ccccc1Cl,12.2%
15,Cc1ncc(CN2CCC(C(=O)Nc3ccc(-n4cccn4)cc3)CC2)s1,-21.2%
16,COc1ccc(NC(=O)COc2ccc(-c3ccccc3)cc2)cc1,2.28%
17,O=C1NC(c2ccc3c(c2)OCO3)Nc2ccccc21 (stereo not drawn),10.5%
18,O=C(CCCN1C(=O)c2ccccc2C1=O)Nc1nccs1,-3.89%
19,N/C(=N\NS(=O)(=O)c1ccccc1C(F)(F)F)c1ccccn1,-9.06%

row,Compound,"hERG current change (%, negative = inhibition) at 10uM"
1,COc1ccc(NC(=S)N(CCN2CCOCC2)Cc2cc3cc4c(cc3[nH]c2=O)OCO4)cc1,-4.36%
2,CCOc1ccc(S(=O)(=O)Nc2nc3ccccc3nc2Nc2ccc(N3CCOCC3)cc2)cc1,-20.5%
3,Nc1ccc2nonc2c1[N+](=O)[O-],33.9%
4,OCC[C@@H]1C[C@H](O)[C@@H](O)[C@@]2(CCc3ccccc3CO2)O1,11.7%
5,Cc1cc(N2CCOCC2)n2ncc(-c3ccccc3Cl)c2n1,-5.97%
6,CCOc1cc(C)c(C(C)C)cc1S(=O)(=O)n1cnc(C)c1,-18.7%
7,O=C(OCCCN=C1NS(=O)(=O)c2ccccc21)c1ccc([N+](=O)[O-])cc1,-32.3%
8,O=C1c2ccccc2S(=O)(=O)c2cc(N3CCN(c4ccccn4)CC3)ccc21,4.69%
9,Oc1ccc(N=Nc2ccccc2)cc1,14.7%
10,Cc1cc(C)nc(SCC(=O)NC2CCCCC2C)n1 (stereo not drawn),14.6%
11,COc1ccc2c(c1)CC/C2=N\OC(=O)c1ccccc1OC,3.97%
12,O=C(N/N=C/c1cccnc1)c1ccccc1Cl,14.2%
13,O=C(COC(=O)CSc1nnc(-c2ccc(Cl)cc2)o1)Nc1cc(Cl)cc(Cl)c1,16.1%
14,CC(C)(C)C1CCc2onc(C(=O)Nc3cccnc3)c2C1 (stereo not drawn),-28.6%
15,COc1cc(C(=O)OCC#N)ccc1OCc1c(C)noc1C,2.86%
16,Cc1cccc(C)c1NCc1nnc(SCC(=O)Nc2nc(-c3ccccc3)cs2)n1-c1ccccc1,-4.69%
17,COc1ccccc1CNC(=O)Cn1cccc1C(=O)c1ccccc1C,-2.95%
18,Cc1cccc(NS(=O)(=O)c2ccc(C(=O)N3CCN(c4ccccc4O)CC3)cc2)c1C,11.7%
19,COCCOC(=O)c1c(C)nc(SCC(=O)Nc2cccc3ccccc23)c(C#N)c1-c1ccco1,0.409%
